From PMC4336329 (PLoS ONE, 2015) come the findings set out here.

In all, about 310,000 compounds went through this assay and about 2,200 (0.71%) showed an effect of 50% or more. Effects have a minus sign here. The list shows a part of the results.

For this assay, the target named is human ether-à-go-go-related gene (hERG) potassium channel (human, UniProt Q12809). Briefly: primary screen, population patch clamp on CHO cells stably expressing hERG.
human ether-à-go-go-related gene (hERG) potassium channel, sequence (Q12809 whole entry, looked up): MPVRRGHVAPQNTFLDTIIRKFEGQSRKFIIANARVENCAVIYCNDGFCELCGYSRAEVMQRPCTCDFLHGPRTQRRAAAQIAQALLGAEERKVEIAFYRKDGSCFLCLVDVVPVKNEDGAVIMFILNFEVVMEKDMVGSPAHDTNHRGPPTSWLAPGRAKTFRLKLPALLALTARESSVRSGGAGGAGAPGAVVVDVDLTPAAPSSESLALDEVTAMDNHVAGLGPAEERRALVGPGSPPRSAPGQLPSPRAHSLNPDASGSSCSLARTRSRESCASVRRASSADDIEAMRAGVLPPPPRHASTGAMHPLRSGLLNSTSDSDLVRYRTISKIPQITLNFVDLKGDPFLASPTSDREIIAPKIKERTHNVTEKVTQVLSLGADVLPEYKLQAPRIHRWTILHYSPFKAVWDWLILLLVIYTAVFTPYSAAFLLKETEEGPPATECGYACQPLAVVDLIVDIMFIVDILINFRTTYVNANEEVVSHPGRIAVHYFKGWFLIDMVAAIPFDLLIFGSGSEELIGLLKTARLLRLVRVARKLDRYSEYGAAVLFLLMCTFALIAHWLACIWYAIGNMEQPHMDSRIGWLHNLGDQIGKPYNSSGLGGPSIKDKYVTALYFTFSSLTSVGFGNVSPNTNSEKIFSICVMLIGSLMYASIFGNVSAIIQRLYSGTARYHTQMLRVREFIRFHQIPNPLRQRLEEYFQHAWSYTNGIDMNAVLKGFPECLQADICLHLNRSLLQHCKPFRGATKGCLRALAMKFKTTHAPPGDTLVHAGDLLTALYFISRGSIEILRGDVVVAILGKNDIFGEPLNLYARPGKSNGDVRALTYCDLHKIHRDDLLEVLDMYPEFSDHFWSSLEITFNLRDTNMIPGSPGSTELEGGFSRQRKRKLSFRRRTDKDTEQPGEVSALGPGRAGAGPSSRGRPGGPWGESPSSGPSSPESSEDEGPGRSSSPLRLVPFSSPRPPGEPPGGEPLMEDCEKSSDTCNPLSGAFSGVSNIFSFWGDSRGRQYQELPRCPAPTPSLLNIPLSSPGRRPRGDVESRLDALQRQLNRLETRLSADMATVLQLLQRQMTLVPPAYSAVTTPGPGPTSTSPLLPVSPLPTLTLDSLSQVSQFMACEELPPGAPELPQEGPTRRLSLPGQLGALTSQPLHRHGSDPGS
Take `O=c1cc(O)c(-c2ccc(Cl)cc2)c(Cl)[nH]1`: the “hERG current change (%, negative = inhibition) at 1uM” value came out at 8.51%. The value for `O=C(Nc1ccc(F)cc1)c1c(Cl)nc2ccccn12` was -2.74%.

For the compound `CCc1nnc(NC(=O)CSc2nnc(-c3ccc(S(=O)(=O)N(CC)CC)cc3)n2CC)s1`, the “hERG current change (%, negative = inhibition) at 1uM” value stood at 16.2%. Consider `CC(C)c1ccc(SCc2noc(C(=O)NCC3CCCO3)c2C(=O)O)cc1` (centres unmarked), for which the “hERG current change (%, negative = inhibition) at 1uM” value was 10.2%. `COc1ccccc1NS(=O)(=O)c1ccc(C)c(C(=O)N2CCCC2)c1`: the “hERG current change (%, negative = inhibition) at 1uM” value stood at 6.98%. The figure for `FC(F)(F)c1nc2ccccc2n2c(-c3c(Cl)cccc3Cl)nnc12` is 1.8%; for `c1ccc(-n2nnnc2CN2CCOCC2)cc1` it is 21.8%; for `COc1ccc(NC(=O)Cc2nnc(SCC(=O)NC3CCCCC3)n2C)cc1` it is 14.8%. As for `COc1ccc(OCC(=O)Nc2ccc3c(c2)nc2n3CCSC2)cc1`, the “hERG current change (%, negative = inhibition) at 1uM” value was 8.57%. The figure for `COCc1cc(C)nc(SCC[N+](C)(C)CC(=O)c2ccccc2)c1C#N.[Br-]` is 11.4%; for `CCCc1cc(=O)oc2cc(OCC(=O)NC(Cc3c[nH]c4ccc(O)cc34)C(=O)O)c(Cl)cc12` (centres unmarked) it is 11.3%; for `CCOc1ccc2oc(C(=O)O)c(C)c2c1` it is 8.96%. The figure for `CC(=O)Nc1ccc(CN2CCCC(C(=O)c3ccc(C(F)(F)F)cc3)C2)cc1` (centres unmarked) is -29.3%. `COc1ccc(OCC(=O)NNC(=O)c2cccc(C)c2)cc1`: the “hERG current change (%, negative = inhibition) at 1uM” value is 10.4%.

For `Cc1ccc(/C=N/NC(=O)Cn2nc(C)c(Br)c2C)o1`, the “hERG current change (%, negative = inhibition) at 1uM” value was found to be 0.906%. The value for `COC(=O)Cc1nnc(SCC(=O)Nc2ccccc2)c2ccccc12` was 6.69%; that for `O=C(Nc1cccc(C(F)(F)F)c1)c1cccnc1N1CCCC1` was 8.7%.

With `O=C(NC1CCCCC1)c1ccccc1-c1ccccc1`, the “hERG current change (%, negative = inhibition) at 1uM” value was found to be 3.95%.

As for `Cc1ccc(SCC(=O)OCn2nnc3ccccc3c2=O)cc1C`, the “hERG current change (%, negative = inhibition) at 1uM” value is 9.41%.

As for `COc1ccc(-c2nnc3ccc(SC)nn23)cc1`, the “hERG current change (%, negative = inhibition) at 1uM” value was determined as 1.76%. The value for `C[C@@H]1CC[C@H]2C(=O)N3[C@@H](CC[C@@H](C)[C@@H]3c3ccc(Br)cc3)C(=O)N2[C@H]1c1ccc(Br)cc1` was 5.38%. The value for `O=C(O)c1ccnc(C(=O)O)c1` was 0.808%; that for `COc1cc(CC(=O)Nc2ccc(N3CCOCC3)cc2)cc(OC)c1OC` was 12%; that for `CCN(CC)C(=O)C1CC(=O)N(c2ccc(F)c(Cl)c2)C1` (centres unmarked) was 10.5%. As for `O=c1c2ccccc2nc(-c2ccc(Cl)cc2Cl)n1-c1nccs1`, the “hERG current change (%, negative = inhibition) at 1uM” value came to 8.11%. Regarding `CS(=O)(=O)N1CCC(C(=O)NCc2ccc(F)cc2)CC1`, the “hERG current change (%, negative = inhibition) at 1uM” value is 9.31%.

In the case of `COc1cc(OC)c(OC)cc1CNCCc1ccc2c(c1)OCO2.O=C(O)C(=O)O`, the “hERG current change (%, negative = inhibition) at 1uM” value was 5.97%. On to `CC(C)[C@H](NC(=O)OCc1ccccc1)C(=O)OCC(=O)Nc1c(F)cccc1F`, for which the “hERG current change (%, negative = inhibition) at 1uM” value was 8.93%.

As to `Cc1ccc(/C=C/C(=O)OC(C)C(=O)Nc2ccc(Cl)cn2)o1` (centres unmarked), the “hERG current change (%, negative = inhibition) at 1uM” value is reported as 11.8%. As for `CC(=O)c1ccc(NC2=C(N3CCOCC3)C(=O)c3ccccc3C2=O)cc1`, the “hERG current change (%, negative = inhibition) at 1uM” value is reported as 2.37%. The value for `N#Cc1nc(Cc2cccc3ccccc23)oc1NCCCN1CCOCC1` was 2.63%.

For the compound `O=C(C1CCN(S(=O)(=O)c2cccc3cccnc23)CC1)N1CCc2ccccc21`, the “hERG current change (%, negative = inhibition) at 1uM” value was 15.1%.

`COc1ccc(C(=O)OCC(=O)Nc2c(C)cccc2C)c(OC)c1OC`: the “hERG current change (%, negative = inhibition) at 1uM” value is reported as 24.2%. On to `CC(=O)N1CCN(S(=O)(=O)c2cccc(C(=O)N(Cc3ccccc3)c3cccc(C)c3)c2)CC1`, for which the “hERG current change (%, negative = inhibition) at 1uM” value is given as 8.34%. The value for `Cc1ccc(CN2CCN(/N=C/c3cc([N+](=O)[O-])ccc3Cl)CC2)cc1` was 2.89%; that for `COc1ccc2c(c1)c(=O)cc(C)n2CC(=O)NCc1ccco1` was 5.49%; that for `CC(=O)c1cccc(Nc2nc(-c3cccnc3)cs2)c1` was 12%. Turning to `C=CCCN(Cc1ccccc1)S(=O)(=O)c1cc(Br)ccc1Br`, the “hERG current change (%, negative = inhibition) at 1uM” value was 10.1%.

`O=C(NCC(c1ccco1)N1CCCCC1)c1cccnc1` (centres unmarked): the “hERG current change (%, negative = inhibition) at 1uM” value worked out at 5.41%.

`COc1ccccc1NS(=O)(=O)c1cc(NC(=O)/C=C/c2cccs2)ccc1N1CCOCC1`: the “hERG current change (%, negative = inhibition) at 1uM” value was 10.2%. The value for `Cc1cc(NC(=O)c2sc(Nc3ccc(F)c(Cl)c3)nc2N)no1` was 4.5%. With `Cc1ccc(S(=O)(=O)N(C)C)cc1NC(=S)NC(C)CCC(C)C` (centres unmarked), the “hERG current change (%, negative = inhibition) at 1uM” value was 4.92%. The value for `COc1ccc(CCNS(=O)(=O)c2cn(C)c(=O)n(C)c2=O)cc1OC` was 11.9%; that for `CC(C)(C)c1ccc(S(=O)(=O)/N=C2\C=C(NS(=O)(=O)c3ccccc3)C(=O)c3ccccc32)cc1` was 11%.
